“And” between values parts separate entries of the source, which are not always exact repeats. Equal entries are not always repeated. The name of at least one read-out is uncertain.
assay: Hypotensive activity in spontaneously hypertensive rats; format: in vivo, spontaneously hypertensive rats of the Okamoto strain; conditions: 100 mg/kg by gavage, two doses 24 hours apart, measured at 28 hours after the initial dose; one or two rats
Method: The novel compounds of the present invention are active hypotensive agents and were tested for hypotensive activity by the method of P. S. Chan and D. Poorvin, Clinical and Experimental Hypertension, 1 (6), 817-830 (1979). […] One to 3 rats are used per test compound. A rat is dosed by gavage with a test compound suspended in 2% pre-boiled starch at a concentration of 50 mg/ml, at a dose of 100 mg/kg of body weight or less, with 0.9% sodium chloride loading at a dose of 25 ml/kg of body weight. A second identical dose of the test compound, without sodium chloride loading is given 24 hours later. At 28 hours after the initial dose the mean arterial blood pressure is measured by the method of Chan and Poorvin (see above). The procedure is repeated in a second and third rat when necessary. The results of this test on representative compounds of the present invention which were obtained using one or two rats, at a dose of 100 mg/kg of body weight appear below in Table I.

SMILES | Mean Arterial Blood Pressure
N#Cc1c(N2CCN(CCCOc3ccccc3)CC2)nn2c(-c3ccncc3)ccnc12 [2-[4-(3-Phenoxypropyl)-1-piperazinyl]-7-(4-pyridinyl)pyrazolo[1,5-a]pyrimidine-3-carbonitrile] | 143 mm of mercury and 144 mm of mercury
N#Cc1c(N2CCN(Cc3ccccc3)CC2)nn2c(-c3ccncc3)ccnc12 [2-(4-Phenylmethyl-1-piperazinyl)-7-(4-pyridyl)pyrazolo[1,5-a]pyrimidine-3-carbonitrile] | 90 mm of mercury and 123 mm of mercury
N#Cc1c(N2CCN(Cc3c(Cl)cccc3Cl)CC2)nn2c(-c3ccncc3)ccnc12 [2-[4-[2,6-Dichlorophenyl)methyl]-1-piperazinyl]-7-(4-pyridinyl)pyrazolo[1,5-a]pyrimidine-3-carbonitrile] | 122 mm of mercury and 117 mm of mercury
N#Cc1c(N2CCN(CC=Cc3ccccc3)CC2)nn2c(-c3ccncc3)ccnc12 [2-[4-(3-Phenyl-2-propenyl)-1-piperazinyl]-7-(4-pyridinyl)pyrazolo[1,5-a]pyrimidine-3-carbonitrile] | 136 mm of mercury and 140 mm of mercury
N#Cc1c(N2CCN(Cc3ccccc3)CC2)nn2c(-c3ccncc3)cc(C(F)(F)F)nc12 [2-[4-(Phenylmethyl)-1-piperazinyl]-7-(4-pyridinyl)-5-(trifluoromethyl)pyrazolo[1,5-a]pyrimidine-3-carbonitrile] | 111 mm of mercury and 117 mm of mercury
N#Cc1c(N2CCN(Cc3cccc(Cl)c3)CC2)nn2c(-c3ccccc3)ccnc12 [2-[4-[(3-Chlorophenyl)methyl]-1-piperazinyl]-7-phenylpyrazolo[1,5-a]pyrimidine-3-carbonitrile] | 135 mm of mercury and 139 mm of mercury
N#Cc1c(N2CCN(Cc3ccco3)CC2)nn2c(-c3ccncc3)ccnc12 [2-[4-(2-Furanylmethyl)-1-piperazinyl]-7-(4-pyridinyl)pyrazolo[1,5-a]pyrimidine-3-carbonitrile] | 104 mm of mercury and 118 mm of mercury
NC(=O)c1c(N2CCN(Cc3ccccc3)CC2)nn2c(-c3ccncc3)ccnc12 [2-[4-(Phenylmethyl)-1-piperazinyl]-7-(4-pyridinyl)pyrazolo[1,5-a]pyrimidine-3-carboxamide] | 120 mm of mercury and 108 mm of mercury
N#Cc1c(N2CCN(Cc3ccc(Cl)c(Cl)c3)CC2)nn2c(-c3ccncc3)ccnc12 [2-[4-[(3,4-Dichlorophenyl)methyl]-1-piperazinyl]-7-(4-pyridinyl)pyrazolo[1,5-a]pyrimidine-3-carbonitrile] | 118 mm of mercury and 117 mm of mercury
NC(=O)c1c(N2CCN(Cc3ccccc3)CC2)nn2c(-c3cccc(C(F)(F)F)c3)ccnc12 [2-[4-(Phenylmethyl)-1-piperazinyl]-7-[3-(trifluoromethyl)phenyl]pyrazolo[1,5-a]pyrimidine-3-carboxamide] | 126 mm of mercury and 111 mm of mercury
N#Cc1c(N2CCN(CCOc3ccccc3)CC2)nn2c(-c3ccncc3)ccnc12 [2-[4-(2-Phenoxyethyl)-1-piperazinyl]-7-(4-pyridinyl)pyrazolo[1,5-a]pyrimidine-3-carbonitrile] | 137 mm of mercury and 116 mm of mercury

same assay, conditions: 100 mg/kg by gavage, two doses 24 hours apart, measured at 28 hours after the initial dose; one or two rats; listed as 2-[4-(Phenylmethyl)-1-piprazinyl]-7-[3-(trifluoromethyl)phenyl]pyrazolo[1,5-a]py

SMILES | Mean Arterial Blood Pressure
N#Cc1c(N2CCN(Cc3ccccc3)CC2)nn2c(-c3cccc(C(F)(F)F)c3)ccnc12 [2-[4-(Phenylmethyl)-1-piperazinyl]-7-[3-(trifluoromethyl)phenyl]pyrazolo[1,5-a]pyrimidine-3-carbonitrile] | 115 mm of mercury and 132 mm of mercury
